Our source for the z-score values is PubChem BioAssay AID488969 (Vanderbilt High Throughput Screening Facility, 2010).

The full ranking holds about 110,000 compounds; the median of “z-score” is about -0.1, and the highest 2% start at about 2. This is one part of the list. The source made the active and inactive calls.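 Rule for the calls: active = z-score in the third read window above 3 or below -3; inactive = the rest.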

The target in the assay is Metabotropic glutamate receptor 8 (Rattus norvegicus) (UniProt P70579). Description: mGluR8 Gi/Go-coupled signaling modulation – cell-based, rat, thallium flux, HTS, primary screen (AID 488969). The settings on record: HEK293 rat mGluR8, GIRK (G protein-gated inwardly rectifying potassium channel) thallium flux, FluoZin2; at 10 µM; stronger effect = higher value; submaximal glutamate (EC20) added with thallium.
UniProt P70579, sequence (P70579 whole entry, looked up): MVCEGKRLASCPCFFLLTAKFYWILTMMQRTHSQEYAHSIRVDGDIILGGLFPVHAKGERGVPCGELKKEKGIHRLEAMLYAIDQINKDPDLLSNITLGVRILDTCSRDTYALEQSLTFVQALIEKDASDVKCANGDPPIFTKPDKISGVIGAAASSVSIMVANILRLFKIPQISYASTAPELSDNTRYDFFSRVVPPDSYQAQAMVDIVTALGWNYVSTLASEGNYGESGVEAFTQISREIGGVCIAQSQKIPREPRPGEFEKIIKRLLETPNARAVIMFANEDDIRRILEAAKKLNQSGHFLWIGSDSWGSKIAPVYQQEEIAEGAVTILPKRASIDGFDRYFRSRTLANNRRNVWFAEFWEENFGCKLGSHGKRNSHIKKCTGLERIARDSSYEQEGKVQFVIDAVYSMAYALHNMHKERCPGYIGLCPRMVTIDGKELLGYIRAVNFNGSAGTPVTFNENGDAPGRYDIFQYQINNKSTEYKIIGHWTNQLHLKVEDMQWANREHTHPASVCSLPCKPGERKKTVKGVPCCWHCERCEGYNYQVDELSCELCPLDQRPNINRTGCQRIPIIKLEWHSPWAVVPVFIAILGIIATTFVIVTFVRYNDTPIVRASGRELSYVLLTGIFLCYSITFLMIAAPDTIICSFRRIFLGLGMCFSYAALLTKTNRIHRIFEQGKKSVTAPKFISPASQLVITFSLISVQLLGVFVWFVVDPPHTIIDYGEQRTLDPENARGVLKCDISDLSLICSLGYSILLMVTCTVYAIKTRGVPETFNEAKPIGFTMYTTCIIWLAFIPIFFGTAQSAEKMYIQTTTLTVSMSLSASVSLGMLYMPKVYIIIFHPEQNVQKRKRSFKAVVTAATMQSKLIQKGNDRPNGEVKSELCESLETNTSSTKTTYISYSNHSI
`COc1ccc(S(=O)(=O)NCCc2cn3cccc(C)c3n2)cc1OC` registered a z-score of 0.0226. For `CC1CCCC(N2C(=O)NC(NC(=O)c3ccco3)(C(F)(F)F)C2=O)C1C` (stereo unspecified) the value was 0.364; for `COc1ccc(N2C(=O)CC(S/C(N)=N/N=C/c3ccnc4ccccc34)C2=O)cc1` (stereo unspecified), -0.229; for `CCNc1nc(NCC)n2c(SCC(=O)NC34CC5CC(CC(C5)C3)C4)nnc2n1`, -0.392. In the case of `CCOc1ccc(NC(=O)CSc2nccn2C)cc1` it was -0.0963.

In the case of `COC(=O)Cc1cc(=O)[nH]c(/N=C(\N)Nc2ccccc2C)n1`, the z-score came out at 0.0712.

In the case of `COc1ccccc1OCc1nnc(SCC(=O)NCc2ccco2)n1-c1ccccc1`, the z-score was -0.449. For `Cc1occc1C(=O)N/N=C/C1=C(N2CCOCC2)C(=C\c2ccc(Cl)cc2)/CC1` the value was -0.128; for `Cc1nn(C(=O)c2cccc([N+](=O)[O-])c2)c(C)c1Sc1ccccc1`, 0.182. In the case of `O=C(NCc1ccco1)c1scc2c1OCCO2` it was -0.343; in that of `CCCCC(=O)c1c(C)cc(C)[nH]c1=O`, -0.388; in that of `O=C(Cc1ccccc1)N1CCc2ccccc21`, -0.123. Regarding `O=C1C2C3C=CC(C3)C2C(=O)N1c1cccnc1` (stereo unspecified), the z-score was -0.0534. `Nn1c(-c2ccccn2)nnc1-c1ccccn1` had a z-score of 0.166. `COc1ccc(NC(=S)Nc2cccc([N+](=O)[O-])c2)cc1` showed a z-score of 0.0335. In the case of `CNC(=O)c1ccc2snnc2c1` it was 0.136. In the case of `CCn1c(SCC(=O)Nc2cccc(NC(C)=O)c2)nnc1C(C)C` it was -0.322; in that of `Cc1ccc(NC2=C(Cl)C(=O)OC2OC(=O)c2ccco2)cc1C` (stereo unspecified), -0.387; in that of `CS(=O)(=O)Nc1ccc(C2=NN(C(=O)C3CCCCC3)C(c3cccs3)C2)cc1` (stereo unspecified), active: -4.15. For `CCOC(=O)c1ccc(Nc2nnc3nc(C)cc(C)n23)cc1` the value was 0.145; for `S=C(NCc1ccc(Cl)cc1)Nc1ccc(Cl)cc1Cl`, -0.0419. With `C=CCN=C(C)C1=C(O)C(C)OC1=O` (stereo unspecified), the z-score is 0.0669. In the case of `CC(C)(C)NCC(O)COc1c(F)cc(Br)cc1F` (stereo unspecified) it was 0.622. For `Cc1cc(C(=O)Nn2c(-c3ccc(Br)cc3)nc3ccccc3c2=O)ccc1[N+](=O)[O-]` the value was 0.0148; for `Cc1nn(-c2ccccc2)c(Cl)c1C(=O)OC(C)C(=O)Nc1ccc2c(c1)OCO2` (stereo unspecified), -0.936; for `O=C(O)c1c[nH]ccc1=O`, -0.307. In the case of `Cc1nc(NC(C)(C)CO)c([N+](=O)[O-])cc1[N+](=O)[O-]` it was -0.154; in that of `COC(=O)c1cc(C#N)c(NCc2ccc(Cl)cc2Cl)nc1C`, -0.106. As to `O=C1CN(C(=O)c2ccc(Br)o2)C(c2ccccc2)c2cc(Br)ccc2N1` (stereo unspecified), the z-score is -0.575. In the case of `COC(=O)c1sccc1NC(=O)c1cc(-c2ccc(C)cc2)nc2ccccc12`, the z-score was -0.553. Regarding `COc1cc(/C=N/NC(=O)COc2cc(C)cc(C)c2)ccc1OS(=O)(=O)c1ccc(C)cc1`, the z-score was -0.228. For `Cc1ccc(C(C#N)N2CCOCC2)cc1` (stereo unspecified) the value was -0.0816; for `O=C(NC1CCCc2ccccc21)C1CCN(c2c3c(nc4ncnn24)CCC3)CC1` (stereo unspecified), -0.302. For `COc1ccc(C(C#N)C2(C)OCCO2)cc1OC` (stereo unspecified) the value was -0.255; for `CCCCOC(=O)C(C)Nc1n[nH]c(=S)[nH]c1=O` (stereo unspecified), -0.489; for `O=[N+]([O-])c1ccc(OCCN2CCCCCC2)cc1`, 0.121. For `CCOC(=O)c1sc(NC(=O)c2ccccc2F)c(C(N)=O)c1C` the value was -0.488; for `COC(=O)CSc1nc(N)c(C#N)c(-c2ccco2)c1C#N`, -0.328. For the compound `COc1cc(OC)cc(C(=O)NC2CCN(C(=O)N3c4ccccc4Sc4ccccc43)CC2)c1`, the z-score is -0.171.

Consider `COc1cc(C)c(NC(=S)Nc2cccc(Cl)c2)cc1OC`, for which the z-score came to 0.0992. In the case of `Cc1ccc(-n2[nH]c(C)c(C=Nc3ccc4[nH]c(=O)[nH]c4c3)c2=O)cc1C` it was -0.26; in that of `COCCCNC(=O)CS(=O)(=O)Cc1nc(-c2ccccc2C)oc1C`, -1.79.

Take `CC(C)(C)OC(=O)N1CCC[C@H]1c1nnc(SC/C=C/c2ccccc2)o1`: the z-score is -0.145. For `COc1ccc(C(=O)N(Cc2ccccc2)Cc2cc3cc4c(cc3[nH]c2=O)OCCO4)cc1` the value was 0.201; for `O=C(c1ccco1)N1CCN(C(c2ccc(F)cc2)c2nnnn2Cc2cccs2)CC1` (stereo unspecified), -0.0646.

The compound `CN(C(=O)CSc1nc(C2CC2)nc2ccccc12)c1nc(-c2ccccc2)cs1` had a z-score of 0.46. For `CCc1nnc(NS(=O)(=O)c2ccc(N/C=C\C(=O)c3cccc4ccccc34)cc2)s1` the value was -0.313. Take `Cc1ccc(Sc2cnc3ccccc3n2)cc1`: the z-score was -0.0867. `Cc1ccc(NC(NC(=O)c2ccccn2)C(Cl)(Cl)Cl)cc1` (stereo unspecified): the z-score was determined as 0.295.

As to `C[n+]1ccccc1N1CCN(c2ccccc2Cl)CC1`, the z-score was -0.103.

In turn, `Cc1ccc2nc(CSc3nnc(Cc4cccs4)n3C3CCCCC3)cc(=O)n2c1` displayed a z-score of 0.361. In the case of `O=C(CSc1nc2ccccc2n1CC(=O)NCc1ccccc1)NCc1ccco1` it was 0.0601; in that of `CCN(CC)c1ccc(N=Cc2c(C)[nH]c3ccccc23)cc1`, 0.894.

`COc1ccc(NC(=O)C(NC(=O)Cc2cccs2)c2ccc(C)cc2)cc1` (stereo unspecified) had a z-score of 0.42. For `CCN(CC)S(=O)(=O)c1ccc(Cl)c(C(=O)OC)c1` the value was -0.181. In the case of `COc1ccccc1COCC(O)CN(Cc1ccco1)Cc1ccccc1O` (stereo unspecified) it was -0.39; in that of `Cc1nn(C)c(C)c1S(=O)(=O)NC1CCCC1`, 0.579. Regarding `CCOC(=O)c1sc(NC(=O)c2sccc2C)cc1C`, the z-score is -0.633. `CC(Sc1nc(-c2ccc(F)cc2)cs1)C(=O)N1c2ccccc2CC1C` (stereo unspecified) yielded a z-score of 0.0161. For `O=S(=O)(N1CCOCC1)n1nnc2ccccc21` the value was 0.545; for `Cn1c(=O)c2ncn(CC(=O)NCCOc3ccc(C(C)(C)C)cc3)c2n(C)c1=O`, 0.893. In the case of `CC(=O)Nc1cccc(C(=O)/C=C/c2ccc(/C=C/C(=O)c3cccc(NC(C)=O)c3)cc2)c1` it was 0.033; in that of `CCSc1nc(N)nc(-c2cccs2)c1C#N`, -0.794; in that of `Cc1ccc(NC(=O)CC2SC(=O)NC2=O)cc1` (stereo unspecified), -0.167.

As to `Cc1cc2nc(-c3ccc(SCC(=O)N4CCc5ccccc54)nc3)[nH]c2cc1C`, the z-score was -0.205. For `CN(C)C(=O)COC(=O)c1cc(Cl)cc(Cl)c1N` the value was 0.496; for `Cc1cc(C)c(C#N)c(SCC(=O)C(C)(C)C)n1`, -0.42; for `COc1cccc(/C=N/NC(=O)CSc2ccccc2C)c1O`, -0.279. For `COc1ccc(Cl)cc1NC(=O)C(C)NC(c1ccccc1)c1ccccc1` (stereo unspecified) the value was -0.301; for `O=C(c1cnn2c(C(F)(F)F)cc(-c3ccco3)nc12)N1CCCc2ccccc21`, -0.976. As for `COc1ccc(CCC(=O)Nc2cc(Cl)ccc2OC)cc1`, the z-score was -0.554. For `O=C(CCC(=O)c1ccc(Cl)cc1)OCC(=O)c1ccccc1` the value was -0.368; for `Cc1ccc(-c2cc(C(=O)N/N=C/c3ccco3)[nH]n2)cc1`, -0.942. For `Cc1nn(CC(=O)O)c(C)c1Cl` the value was -0.319.

As for `CC(=O)Nc1ccc(Sc2ncnc3scc(-c4ccccc4)c23)cc1`, the z-score is -0.306.

For `CCCC(C)NC(=O)Cc1ccc(Br)cc1` (stereo unspecified), the z-score is -0.111. For `COc1ccc(-c2nn(-c3ccccc3)cc2CO)cc1` the value was -0.269; for `CCOC(=O)c1cnc(SCC(C)C)nc1N`, -0.417; for `CC12CCC(C(=O)NNc3ccc([N+](=O)[O-])cc3)(CC1=O)C2(C)C` (stereo unspecified), 0.376.

With `CNC(=S)N/N=C/c1cn(Cc2ccc(C)cc2)c2ccccc12`, the z-score was -0.123.

Regarding `O=C1NC(=Nc2cccc(Cl)c2)SC1Cc1cccc(Cl)c1Cl` (stereo unspecified), the z-score is -0.324. In turn, `CCOC(=O)C1=C(N)N2C(=O)C(C)SC2=C(C(=O)OC)C1c1cccc(OC)c1` (stereo unspecified) registered a z-score of 0.245. In the case of `Cc1ccc(C(=O)NC2CCS(=O)(=O)C2)cc1S(=O)(=O)N1CCOCC1` (stereo unspecified) it was 0.00448; in that of `CCN(CC)S(=O)(=O)c1cc(NC(=O)C(C)OC(=O)c2[nH]c(C)c(C(C)=O)c2C)ccc1C` (stereo unspecified), 0.468; in that of `CC(C)Oc1cccc(C(=O)NC(=S)Nc2ccc3c4c(cccc24)CC3)c1`, 1.24.

For `Cc1nc2ccccc2c(=O)n1C1CCCCCC1`, the z-score was -0.0751. In the case of `O=C(Nc1ccc(C(=O)N2CCCCC2)cc1)c1ccc(Br)cc1` it was 1.09; in that of `CCN(C(=O)CSc1nnc2ccccn12)c1c(N)n(Cc2ccccc2)c(=O)[nH]c1=O`, 0.0507; in that of `CCOC(=O)Nc1ccc(S(=O)(=O)Nc2nc(C)cc(C)n2)cc1`, -0.111.

On to `CCOc1cc(/C=N/O)ccc1OCC(=O)Nc1cccc(C)c1`, for which the z-score was -0.0891. For `CC(C)N1C(=O)/C(=C\c2nc3ccccc3c(=O)[nH]2)c2ccccc21` the value was -0.25; for `COc1cccc(/C=C(\C#N)C(=O)NC2CCS(=O)(=O)C2)c1` (stereo unspecified), -0.238; for `CC(=O)Oc1cccc(/C=c2\sc3nc(-c4ccco4)nn3c2=O)c1`, -0.739. In the case of `Cc1ccc2c(CC(=O)NCc3ccc4c(c3)OCO4)coc2c1` it was 0.281.

Turning to `CCn1c(CNC(=O)COc2ccc(C(C)C)cc2)nnc1SCC(=O)Nc1ccccc1`, the z-score is -0.487.

In the case of `COc1ccc(/C=C/C(=O)O/N=C(\N)c2ccccc2)cc1OC`, the z-score was -0.333.

As for `O=C(NCCCn1ccnc1)c1sc2cccc(F)c2c1Cl`, the z-score was -0.19.

For the compound `O=C(Nc1ccccc1)N1CCSc2cc(Cl)ccc21`, the z-score is 0.221. For `Cc1cccc(N2C(=O)CN=C2Nc2nc(C)cc(C)n2)c1`, the z-score was -0.792.

As to `CCCCN(C(=O)c1cnc2n(c1=O)CCS2)c1ccccc1`, the z-score was -0.0461. Regarding `COc1cccc(NC(=O)CNS(=O)(=O)c2ccc3nc(C)sc3c2)c1`, the z-score turned out to be 0.0289. For `O=C(Nc1ccn(-c2ccccc2)n1)c1ccc(S(=O)(=O)N2CCCCCC2)cc1` the value was -0.122.

As for `O=C(CN1C(=O)c2cccc3cccc1c23)N1CCN(Cc2ccc3c(c2)OCO3)CC1`, the z-score is -0.363. In the case of `CS(=O)(=O)N(Cc1ccccc1)c1ccc(C(=O)NCc2ccccc2)cc1` it was -0.193; in that of `COC(=O)c1ccc(NC(=O)C(=O)NCC2CCCO2)cc1` (stereo unspecified), -0.151; in that of `Cc1nn2c(C(F)(F)F)cc(-c3ccc(Cl)cc3)nc2c1C(=O)N1CCOCC1`, 0.903. For the compound `COc1ccc(NC(=O)C(F)(OC)C(F)(F)F)c(OC)c1` (stereo unspecified), the z-score was -0.224.

As for `O=C1CN(C(=O)COc2ccccc2)CCN1`, the z-score is -0.232. For the compound `Cc1ccc(S(=O)(=O)Nc2cc(C(=O)N3CCOCC3)ccc2N2CCCCC2)cc1`, the z-score was -0.144. In the case of `Cc1cccc2cc(CN(CCCN3CCOCC3)Cc3nnnn3C(C)(C)C)c(=O)[nH]c12`, the z-score is -0.15. For `NC(=O)C1(N2CCCCC2)CCN(C(=O)c2ccc(C#CC3(O)CCCCC3)cc2)CC1` the value was -0.272.
